From PubChem BioAssay AID493208 (National Center for Advancing Translational Sciences (NCATS), 2011)
About 340 (0.77%) of roughly 44,000 compounds were called active. Not shown: some 5% with an inconclusive outcome. Calls come from the whole dose curve; as a rule, active = well fitted inhibition curve with a large enough effect; inconclusive = small, poorly fitted or top-dose-only effect; inactive = flat fitted curve, though single readings scatter. The list shows a part of the results.

Assay: Acumen qHTS Assay for Inhibitors of the mTORC1 Signaling Pathway in MEF (Tsc2-/-, p53-/-) Cells: Sytravon; note: nearly all actives have a fitted effect of over 50% in size;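 for activity change, negative = inhibition: plate controls were DMSO for no effect and rapamycin for full effect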
Conditions: phospho-rpS6 immunofluorescence/PI, 24 h; series mostly up to 38.3 µM; activity change, negative = inhibition: at the top concentration
How it was run: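 Plate MEFs (Tsc2-/-, p53-/-, empty vector) in DMEM/10% FBS; after 24 h add compound, incubate 24 h at 37 degree Celsius; fix in PFA/TX-100, block, stain phospho-rpS6 and 10 uM PI; scan at 488 nm; report % positive cells.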
Potency is the fitted concentration of half-maximal effect.

Activity change, negative = inhibition, inactive:
Cc1ccccc1Cn1c(=O)n(CCC(=O)NCc2ccco2)c(=O)c2sccc21 -4.38%
CC(C)Nc1nc2c(-c3cccc(Br)c3)nnn2c2ccccc12 -9.95%
Cc1ccc(NC(=O)CSc2nc(-c3ccco3)nc3cc(=O)[nH]n23)cc1 3.16%
COc1ccccc1NC(=O)C1=C(C)Nc2nc(-c3ccco3)nn2C1c1ccccc1F (configuration not stated) -19.8%
CCCc1cc(=O)[nH]c(Nc2ccc(OCC)cc2)n1 -6.57%
Cc1cccc(S(=O)(=O)c2cn(C)c3cc(N4CCN(c5ccccc5)CC4)c(F)cc3c2=O)c1 0.329%
Cc1ccc(Cn2c(C)c3cnn(CC(=O)NCCc4ccc(Cl)cc4)c(=O)c3c2C)cc1 -3.08%
COc1cccc(CCNC(=O)c2cnc3sc(N4CCOCC4)nn3c2=O)c1 -10%
CCCNC(=O)CN1CCN(c2ccc(NC(=O)c3ccc(OC)cc3)cc2C(=O)O)CC1 -2.52%
COc1ccc(CNC(=O)c2ccc(NC(=O)N3CCSc4ncccc43)cc2)cc1 -0.775%
Cc1ccccc1C(=O)N1CCC(C(=O)Nc2ccc(F)cc2F)CC1 3.6%
Cc1ccc(S(=O)(=O)c2nc(-c3ccccc3F)oc2NCc2ccccc2)cc1 -11.5%
Cc1nc(N2CCOCC2)c2c(C(=O)N3CCN(c4ccccc4)CC3)c(C)oc2n1 3.64%
CCOC(=O)c1cccc(NC(=O)NC(C)c2c(-n3cccc3)sc3c2CCN(C)C3)c1 (configuration not stated) -8.72%
Cc1cc2c(cc3c(SCC(=O)Nc4ccc(Cl)cc4F)nncn32)o1 1.09%
COCCCN1C(=O)c2oc3ccccc3c(=O)c2C12C(=O)N(C)c1ccccc12 (configuration not stated) 5.92%
O=C(COc1ccccc1F)Nc1ccc(OCc2cc(=O)n3ccccc3n2)cc1 -1.64%
CCOc1ccc(NC(=O)CCc2c(C)nc3c(-c4ccccc4)c(C)nn3c2C)cc1 -4.69%
COC(=O)c1ccc(Cn2c(SCc3ccc(F)cc3)nc3ccncc32)cc1 -6.29%
Cc1ccc(CNC(=O)CSC2=Nc3ccccc3N=C(c3ccc(F)cc3)C2)cc1 -5.3%
O=c1ccc2cc(S(=O)(=O)Nc3ccc(OC(F)(F)F)cc3)ccc2[nH]1 6.37%
Cc1cc(C)cc(NC(=O)c2c(C)oc3nc(C)nc(N4CCCC4)c23)c1 -4.33%
CC(C)CCn1c(=O)c2cccnc2n(CC(=O)Nc2ccccc2F)c1=O -8.94%
Cn1c2ccccc2c2cnn(CC(=O)Nc3ccccc3F)c(=O)c21 -8.94%
CCOc1ccc(Nc2nn(-c3ccc(OC(F)(F)F)cc3)nc2C(C)=O)cc1 -0.187%
CCc1ccc(OCC(=O)Nc2ncn[nH]2)c(Br)c1 -3.52%
COc1cccc(Cn2c(-c3nonc3NC(C)=O)nc3ccccc32)c1 -3.17%
COc1cccc(-c2noc(-c3cc(C(C)C)[nH]n3)n2)c1OC 0.226%
COc1ccccc1CNC(=O)CCNS(=O)(=O)c1ccc2c(c1)oc(=O)n2C 1.83%
O=C(COc1ccc(F)cc1)NCc1ccc2c(c1)CCN2C(=O)c1ccccc1 -18.2%
CNC(=O)c1ccc2c(c1)N(Cc1ccccc1Cl)C(=O)c1ccccc1S2 0.0694%
Cc1cccc(NC(=O)c2sc3nc(-c4cc5ccc(O)cc5oc4=O)[nH]c(=O)c3c2C)c1 5.66%
O=C(Cn1c(=O)nc(-c2ccccc2F)c2cc(Cl)ccc21)NCCCc1ccccc1 -18.5%
COc1ccc(N2CCN(Cc3nnc(-c4ccc5c(c4)OCO5)o3)CC2)cc1 -0.913%
Cc1ccc2c(c1)c1c3n2CCN(C(=O)c2cccc(C(F)(F)F)c2)C3CCC1 (configuration not stated) -10.2%
CCc1cccc(C)c1Nc1c(-c2ccsc2)nc2ncccn12 9.44%
Cc1ccc(C)c(Cn2c3ccccc3c3cnn(CC(=O)NCCc4ccccc4)c(=O)c32)c1 -10.6%
Clc1ccc(-c2noc(-c3cccnc3NCc3ccco3)n2)cc1 0.876%
Cc1ccc(-n2nc(C)c3nc(CCC(=O)Nc4cccc(F)c4)c(=O)n(C)c32)cc1 0%
Cc1cccc(CNC(=O)CCCN2C(=O)CCn3nc(-c4cccn4C)cc32)c1 -4.83%
CCOc1c(Cl)cc(C(=O)N(Cc2ccc(N(C)C)cc2)Cc2ccco2)cc1Cl 0.0842%
COc1ccc(CNC(=O)C2CCCN(c3nnc(C)c4c(C)n(-c5ccc(C)cc5)nc34)C2)cc1 (configuration not stated) -14.4%
CCC(Sc1nc2ncccc2o1)C(=O)Nc1ccc(OC)c(OC)c1 (configuration not stated) 0%
COc1ccc(C2CC(=O)c3cc(-c4nc(-c5cccc(Cl)c5)cs4)c(=O)[nH]c3C2)cc1 (configuration not stated) 4.65%
Cc1ccc2c(=O)cc(C(=O)Nc3sc4c(c3C(=O)NCC3CCCO3)CCCC4)oc2c1 (configuration not stated) 0.491%
CCOc1ccccc1N(C)C(=O)c1c2c(nc3ccccc13)C(=O)N(C1CCCCC1)C2 -1.02%
O=S(=O)(c1ccc(Cl)cc1Cl)n1ccnc1 -1.32%
CSc1oc(-c2cccs2)nc1S(=O)(=O)c1ccc(Br)cc1 2.88%
Cc1ccc2oc(-c3cc(NC(=O)c4oc5ccccc5c4C)ccc3Cl)nc2c1 -5.15%
Cc1ccc2oc(=O)n(Cc3ccccc3Cl)c2c1 0.0857%
CCc1ccc(OCC(=O)Nc2cc(-c3nc4cc(C)ccc4o3)ccc2C)cc1 0.616%
CN(Cc1ccc(F)cc1)S(=O)(=O)c1nnc(NC(=O)c2ccccc2)s1 -3.22%
CCCNC(=O)C1CCC(CNS(=O)(=O)c2ccc3c(c2)CC(C)N3C(C)=O)CC1 (configuration not stated) -14.1%
Cc1ccc(NC(=O)c2oc3ccccc3c2NC(=O)C23CC4CC(CC(C4)C2)C3)cc1 -7.53%
CCOc1ccc(Nc2ncnc3scc(-c4ccc(OC)cc4)c23)cc1 0%
Cc1ccc(C(=O)NCc2ccccc2)cc1NC(=O)c1nsc2ccccc12 9.15%
CCOC(=O)c1c(C)[nH]c(C)c1S(=O)(=O)N1CCC(C(=O)Nc2ccc(C)c(N(C)C)c2)CC1 5.78%
CC(C)(C)OC(=O)N1CCC(c2c(C(=O)N3CCN(Cc4ccccc4)CC3)cnn2-c2ccc(Cl)cc2)CC1 3.28%
Cn1cc(C(=O)NCCc2ccccc2)c(=O)c2cc(S(=O)(=O)N3CCCCC3)ccc21 5.11%
CCc1ccc(N2C(=O)CN(S(=O)(=O)CC)CC2(C)C(=O)NC2CCCCC2)cc1 (configuration not stated) 0.438%
Cc1cc(-c2ccc(C)c(S(=O)(=O)NCc3cccs3)c2)on1 -15.5%
O=C(CNC(=O)c1ccccc1)OCc1cc(=O)n2nc(C3CC3)sc2n1 3.37%
Cc1ccc(Nc2c(-c3ccc(C)o3)nc3cccc(C)n23)cc1 -5.3%
O=c1c2oc3ccccc3c2n(Cc2ccc(Cl)cc2)c(=O)n1Cc1ccccc1 -0.619%
CCC1CCCCN1C(=O)CCS(=O)(=O)c1cc2c(cc1C)NC(=O)CO2 (configuration not stated) 8.04%
Cc1cc(C)cc(-n2c(SCC(=O)N3CCCCCC3)nc3c([nH]c4ccccc43)c2=O)c1 0.107%
O=C(Nc1cc(F)ccc1F)c1ccc(CN2CC(=O)N3CCCCC3C2=O)cc1 (configuration not stated) 7.95%
COc1ccc(-c2cc(=O)oc3c4c(ccc23)OCN(Cc2ccccc2)C4)cc1 1.76%
CC(=O)Nc1c(C)nn(-c2ccccc2)c1N1CCC(C(=O)NCc2ccc(F)cc2)CC1 0.628%
C=C(C)Cn1c(SCC(=O)c2ccccc2)nc2sc3c(c2c1=O)CCCC3 1.94%
COc1cc(Cl)c(C)cc1NC(=O)Cn1c(C)c2cnn(-c3ccccc3)c(=O)c2c1C 1.34%
CC(=O)c1ccc(NC(=O)CSc2nnc(N)s2)cc1 -0.506%
O=C(Nc1cccc(C(F)(F)F)c1)C1CCN(S(=O)(=O)c2cccs2)CC1 -0.33%
CCn1cc2nc(SCc3cccc(C(F)(F)F)c3)n(Cc3ccc(OC)cc3)c(=O)c2n1 0%
COc1cc2c(cc1NC(=O)COc1ccc(Cl)cc1)oc1ccccc12 -3.71%
COc1ccc(NC(=O)Cn2c(=O)n(Cc3ccco3)c(=O)c3oc4ccccc4c32)cc1Cl -6.61%
COc1ccc(-n2ncc3c2ncn2nc(Cc4ccccc4)nc32)cc1 3.02%
Cc1ccccc1CNCc1c(C(=O)O)c(C)n(Cc2ccc(F)cc2Cl)c1C 1.02%
CC(=O)Nc1ccc(C(=O)Nc2ccc3c(c2)N(C2CCCC2)C(=O)c2ccccc2S3)cc1 -7.42%
Clc1ccccc1CN1CCc2nc(N3CCN(c4ncccn4)CC3)ncc2C1 0%
Cc1nnc(N2CCC(C(=O)NC(C)C)CC2)c2nn(-c3ccccc3)c(C)c12 -7.01%
Cc1ccc(-c2noc(-c3nnn(-c4ccc(Br)cc4F)c3C)n2)cc1 -8.02%
O=C(Nc1ccc(F)cc1)c1cc2cc3ccc(Cl)cc3nc2o1 -10.8%
COc1ccc(OC)c(CCNC(=O)Cn2nc(C)n3c(cc4sccc43)c2=O)c1 1.53%
COc1ccc(-n2ncc(C(=O)NCCN3CCOCC3)c2C2CCN(C(=O)OC(C)(C)C)CC2)cc1 0.561%
CCc1c(C)sc2c1CCN(C(=O)Nc1cc(C)ccc1C)C2c1ccc(OC)cc1 (configuration not stated) 0%
Cc1nc(-c2cccc(S(=O)(=O)N3CCC(C(=O)NCc4ccccc4Cl)CC3)c2)no1 -4.62%
Cc1cc(C)cc(NC(=O)c2cc(S(=O)(=O)N3CCCC3)ccc2F)c1 1.83%
Cn1nc(-c2ccccc2F)c2cc(C(=O)NCc3cccc(Cl)c3)sc21 2.45%
Cc1ccc(C)c(NC(=O)c2nnn(Cc3ccc(F)cc3Cl)c2N)c1 -29.4%
Cc1cccc(CSc2nnc(CCCCCN)o2)c1 -28.1%
CCC1Oc2ccccc2N(CC(=O)NCCc2ccc(OC)c(OC)c2)C1=O (configuration not stated) -3.62%
O=C(NCCc1ccccc1)c1cnc2sc(N3CCCCC3)nn2c1=O -8.49%
O=c1oc2ccc3ccccc3c2cc1-c1nnc(Nc2cccc(C(F)(F)F)c2)s1 4.02%
COc1cc(OC)c(NC(=O)N2CCc3cc(S(=O)(=O)N4CCC(C)CC4)ccc32)cc1Cl -0.22%
O=C(c1cc2c(s1)-c1ccccc1OC2)N1CCN(c2ccc(F)cc2)CC1 1.58%

Potency, active:
CCS(=O)(=O)c1ncc(Cl)c(C(=O)NCc2ccccc2)n1 2610 nM
